# Results as given in a collection of fitness landscapes (doi:10.1016/j.celrep.2020.107928).
# In all, about 81,000 sequences were measured (“one-hybrid fitness for binding NBS DNA”: median about -0.1, highest 2% from about 0.36 on). This is one part of the list.
# B1: Caulobacter ParB omega fusion; a variant is named by its letters at X, in order, B8GW30 (parent)
# chain: MESVVVGEPGMSEGRRGLGRGLSALLGEVDAAPAQAPGEQLGGSREAPIEILQRNPDQPRRTFREEDLEDLSNSIREKGVLQPILVRPSPDTAGEYQIVAGERAWRAAQRAGLKTVPIMVRELDDLAVLEIGIIENVQRADLNVLEEALSYKVLMEKFERTQENIAQTIGKSXSHVANXMRLLXLPDEVQSYLVSGELTAXHARAIAAAADPVALAKQIIEGGLSVRETEALARKAPNLSAGKSKGGRPPRVKDTDTQALESDLSSVLGLDVSIDHRGSTGTLTITYATLEQLDDLCNRLTRGI
# Variants of: B1
# Assay: one-hybrid fitness for binding NBS DNA (the Noc-binding site; scaled: cognate 1, non-cognate 0); higher = stronger binding
# Settings: with NBS DNA site
# In short: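 Bacterial one-hybrid selection in E. coli USO rpoZ- hisB- pyrF- with a HIS3 reporter carrying the site 19 bp from the promoter, screening Caulobacter ParB libraries with four specificity codons randomised (NNS). Cells grew 48 hours at 37°C on M9-minus-histidine plus 0.1 mM IPTG and 5 mM 3-AT. Plasmids before and after selection were Illumina-sequenced, three replicate libraries pooled, and variants under 10 reads dropped. Fitness is the log change in variant-to-wild-type read ratio, rescaled to cognate 1, non-cognate 0.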
row,Variant,one-hybrid fitness for binding NBS DNA
1,MCDG,≤ 0.2
2,WPCC,≤ 0.2
3,ALAH,≤ 0.2
4,QMET,0.295
5,NWRV,≤ 0.2
6,HTGH,≤ 0.2
7,HTQT,≤ 0.2
8,EWIR,≤ 0.2
9,PYQW,≤ 0.2
10,RWSK,≤ 0.2
11,PTHF,≤ 0.2
12,QGAY,≤ 0.2
13,CMAL,≤ 0.2
14,AHVR,≤ 0.2
15,VKER,≤ 0.2
16,KLLF,≤ 0.2
17,GVMW,≤ 0.2
18,RMEW,≤ 0.2
19,CSHI,≤ 0.2
20,KIAL,≤ 0.2
21,QLCN,≤ 0.2
22,KYNI,≤ 0.2
23,WAPV,≤ 0.2
24,QADA,≤ 0.2

row,Variant,one-hybrid fitness for binding NBS DNA
1,CRAL,≤ 0.2
2,NPVG,≤ 0.2
3,HYNT,≤ 0.2
4,LLSW,≤ 0.2
5,TPGA,≤ 0.2
6,GRIP,≤ 0.2
7,YTTE,≤ 0.2
8,NGYC,≤ 0.2
9,RWQV,≤ 0.2
10,SKLC,≤ 0.2
11,LDTG,≤ 0.2
12,KLIR,≤ 0.2
13,WMAT,≤ 0.2
14,CVQW,≤ 0.2
15,HRKV,≤ 0.2
16,RHGV,≤ 0.2
17,SSLM,≤ 0.2
18,QNET,≤ 0.2
19,RFDR,≤ 0.2
20,QVEL,≤ 0.2
21,QPDL,≤ 0.2
22,TWWE,≤ 0.2
23,HMKI,≤ 0.2
24,TGQG,≤ 0.2

row,Variant,one-hybrid fitness for binding NBS DNA
1,YKKS,≤ 0.2
2,HHKV,≤ 0.2
3,REYQ,≤ 0.2
4,TKPW,≤ 0.2
5,RRRF,0.442
6,CLWT,≤ 0.2
7,RYEM,≤ 0.2
8,QGNR,≤ 0.2
9,PSVW,≤ 0.2
10,VGPK,≤ 0.2
11,ISGK,≤ 0.2
12,PSVG,≤ 0.2
13,HHCA,≤ 0.2
14,AKRS,≤ 0.2
15,CSAF,≤ 0.2
16,SCRG,≤ 0.2
17,AHRG,≤ 0.2
18,QLKV,0.342
19,DMNG,≤ 0.2
20,HISR,≤ 0.2
21,HETV,≤ 0.2
22,VSWV,≤ 0.2
23,EDKW,≤ 0.2
24,GKIG,≤ 0.2

row,Variant,one-hybrid fitness for binding NBS DNA
1,AGRY,≤ 0.2
2,AGDY,≤ 0.2
3,FMRT,≤ 0.2
4,NAVK,≤ 0.2
5,RHRM,≤ 0.2
6,IAGG,≤ 0.2
7,GRMC,≤ 0.2
8,DLHA,≤ 0.2
9,SDPP,≤ 0.2
10,KPAS,≤ 0.2
11,RVSQ,≤ 0.2
12,SLYA,≤ 0.2
13,CYFG,≤ 0.2
14,WMES,≤ 0.2
15,CALW,≤ 0.2
16,EWTN,≤ 0.2
17,AQIN,≤ 0.2
18,VITG,≤ 0.2
19,TKCT,≤ 0.2
20,TFKH,≤ 0.2
21,YDTM,≤ 0.2
22,LIER,≤ 0.2
23,KYRC,≤ 0.2
24,YDIF,≤ 0.2

row,Variant,one-hybrid fitness for binding NBS DNA
1,YNGI,≤ 0.2
2,QDND,≤ 0.2
3,QHYY,≤ 0.2
4,HDTI,≤ 0.2
5,LEWT,≤ 0.2
6,PRWK,≤ 0.2
7,DHYM,≤ 0.2
8,YGTA,≤ 0.2
9,WMSG,≤ 0.2
10,YRLL,≤ 0.2
11,CIGS,≤ 0.2
12,VMAP,≤ 0.2
13,ALNT,≤ 0.2
14,WCVS,≤ 0.2
15,VAPP,≤ 0.2
16,MVQC,≤ 0.2
17,QACN,≤ 0.2
18,RTWD,≤ 0.2
19,YNRG,≤ 0.2
20,ADSL,≤ 0.2
21,DLSW,≤ 0.2
22,RHSP,≤ 0.2
23,RLMY,≤ 0.2
24,EASV,≤ 0.2

row,Variant,one-hybrid fitness for binding NBS DNA
1,YSAL,≤ 0.2
2,YWKT,≤ 0.2
3,VLTC,≤ 0.2
4,PYDR,≤ 0.2
5,VWLC,≤ 0.2
6,AIER,≤ 0.2
7,HENS,≤ 0.2
8,LCWL,≤ 0.2
9,PSNE,≤ 0.2
10,MERE,≤ 0.2
11,LRHP,≤ 0.2
12,GFNW,≤ 0.2
13,CFSY,≤ 0.2
14,WYSR,≤ 0.2
15,VHAM,≤ 0.2
16,IRRD,≤ 0.2
17,SMQS,≤ 0.2
18,NYMS,≤ 0.2
19,ILPE,≤ 0.2
20,YVTE,≤ 0.2
21,PNDQ,≤ 0.2
22,CFST,≤ 0.2
23,QTER,0.458
24,MGGV,≤ 0.2

row,Variant,one-hybrid fitness for binding NBS DNA
1,NWPC,≤ 0.2
2,STSW,≤ 0.2
3,PQCH,≤ 0.2
4,RRGR,0.744
5,PTPC,≤ 0.2
6,ANRT,≤ 0.2
7,AENM,≤ 0.2
8,RGSP,≤ 0.2
9,MPLN,≤ 0.2
10,DYIF,≤ 0.2
11,RQDK,≤ 0.2
12,IDAT,≤ 0.2
13,PKIY,≤ 0.2
14,KKKL,≤ 0.2
15,HRPC,≤ 0.2
16,KWYT,≤ 0.2
17,NTSC,≤ 0.2
18,LCRN,≤ 0.2
19,LLCV,≤ 0.2
20,NWAE,≤ 0.2
21,TCRV,≤ 0.2
22,HMTC,≤ 0.2
23,LANN,≤ 0.2
24,LDNN,≤ 0.2

row,Variant,one-hybrid fitness for binding NBS DNA
1,THEQ,≤ 0.2
2,FRAR,≤ 0.2
3,PSFR,≤ 0.2
4,ECRS,≤ 0.2
5,LIIR,≤ 0.2
6,TSVQ,≤ 0.2
7,KLRP,≤ 0.2
8,LAVC,≤ 0.2
9,PMDF,≤ 0.2
10,HRMS,≤ 0.2
11,SNHS,≤ 0.2
12,CHSH,≤ 0.2
13,KSFC,≤ 0.2
14,RQCT,0.382
15,QAKH,0.541
16,EQYF,≤ 0.2
17,KGHN,≤ 0.2
18,MPKL,≤ 0.2
19,RDRM,≤ 0.2
20,IHNN,≤ 0.2
21,QIEE,≤ 0.2
22,ILSS,≤ 0.2
23,TRHD,≤ 0.2
24,YILP,≤ 0.2

row,Variant,one-hybrid fitness for binding NBS DNA
1,RSEP,≤ 0.2
2,HPPI,≤ 0.2
3,KVQC,≤ 0.2
4,WPQV,≤ 0.2
5,REHG,≤ 0.2
6,TTLT,≤ 0.2
7,GSGC,≤ 0.2
8,PSIM,≤ 0.2
9,LSPV,≤ 0.2
10,LIAK,≤ 0.2
11,QIAS,0.261
12,TQQH,≤ 0.2
13,QKPQ,≤ 0.2
14,AYSR,≤ 0.2
15,WGHG,≤ 0.2
16,ATHS,≤ 0.2
17,KGFT,≤ 0.2
18,HSKA,≤ 0.2
19,TIKC,≤ 0.2
20,SNPQ,≤ 0.2
21,VWHC,≤ 0.2
22,RAIN,≤ 0.2
23,ANIE,≤ 0.2
24,DRCM,≤ 0.2

row,Variant,one-hybrid fitness for binding NBS DNA
1,QDKT,≤ 0.2
2,LMHW,≤ 0.2
3,MSTI,≤ 0.2
4,VQRN,≤ 0.2
5,LAAC,≤ 0.2
6,RTFQ,≤ 0.2
7,ITYR,≤ 0.2
8,ERRH,≤ 0.2
9,VSYP,≤ 0.2
10,LQST,≤ 0.2
11,PLFM,≤ 0.2
12,RQLN,≤ 0.2
13,MVFR,≤ 0.2
14,MYQT,≤ 0.2
15,VSPS,≤ 0.2
16,SPHL,≤ 0.2
17,DMAI,≤ 0.2
18,ASTY,≤ 0.2
19,YSVM,≤ 0.2
20,HQHL,≤ 0.2
21,SRQP,≤ 0.2
22,FASI,≤ 0.2
23,IEHL,≤ 0.2
24,KCDR,≤ 0.2

row,Variant,one-hybrid fitness for binding NBS DNA
1,LPAP,≤ 0.2
2,TWLC,≤ 0.2
3,PLKT,≤ 0.2
4,REYL,≤ 0.2
5,TQVT,≤ 0.2
6,HHNT,≤ 0.2
7,DNRN,≤ 0.2
8,HRVG,≤ 0.2
9,KGRN,≤ 0.2
10,RYVL,≤ 0.2
11,NTST,≤ 0.2
12,PHMR,≤ 0.2
13,HHPF,≤ 0.2
14,EGKR,≤ 0.2
15,RAGP,≤ 0.2
16,TTIS,≤ 0.2
17,ACHI,≤ 0.2
18,GPDS,≤ 0.2
19,DSET,≤ 0.2
20,EPPN,≤ 0.2
21,KPTD,≤ 0.2
22,QRTQ,0.437
23,KMTL,≤ 0.2
24,PNYR,≤ 0.2

row,Variant,one-hybrid fitness for binding NBS DNA
1,PIEE,≤ 0.2
2,AMKV,≤ 0.2
3,PYRP,≤ 0.2
4,RYWD,≤ 0.2
5,YHQC,≤ 0.2
6,FCIL,≤ 0.2
7,LTMD,≤ 0.2
8,RQYS,0.322
9,VVLG,≤ 0.2
10,QVPM,≤ 0.2
11,EPVR,≤ 0.2
12,QPTK,≤ 0.2
13,AVDR,≤ 0.2
14,RVMM,≤ 0.2
15,TAPM,≤ 0.2
16,DNRY,≤ 0.2
17,RIDQ,≤ 0.2
18,LREF,≤ 0.2
19,NRWA,≤ 0.2
20,WKKR,≤ 0.2
21,ESQE,≤ 0.2
22,PTIY,≤ 0.2
23,IFTG,≤ 0.2
24,ASTH,≤ 0.2

row,Variant,one-hybrid fitness for binding NBS DNA
1,AYQY,≤ 0.2
2,EKEG,≤ 0.2
3,KRSL,≤ 0.2
4,SYGF,≤ 0.2
5,SAYT,≤ 0.2
6,EVSV,≤ 0.2
7,ITHW,≤ 0.2
8,NPMR,≤ 0.2
9,YAVS,≤ 0.2
10,AQDS,≤ 0.2
11,RGWN,≤ 0.2
12,QAKD,≤ 0.2
13,STTL,≤ 0.2
14,PNYA,≤ 0.2
15,YGPR,≤ 0.2
16,IQDS,≤ 0.2
17,RCPQ,≤ 0.2
18,GCWR,≤ 0.2
